Laboratory results as given in patent US7592316B2, “Peptides as NS3-serine protease inhibitors of hepatitis C virus” (Schering Corporation, priority 2000, dated 2009).
*1 amine or outer side, *2 acyl side, *3 side chain or, on linkers, in order; H or OH if unused. Where a SMILES comes first, the peptide text is derived from it. [ ]: non-standard residue; d: D form. The star is where a group is joined. ξ: configuration not given here. Pro(3R,4S-CMe2) = CC1(C)[C@@H]2[C@@H](C(=O)O)NC[C@@H]21; ξ(3-Amino-2-oxopentanoyl) = CCC(N[*:1])C(=O)C(=O)[*:2]; Pro(3S,4R-CMe2) = CC1(C)[C@H]2[C@@H](C(=O)O)NC[C@H]21; Pro(3S,4R-methano) = O=C(O)[C@H]1NC[C@@H]2C[C@@H]21; ξPhg(3,5-(OMe)2) = COc1cc(OC)cc(C(N)C(=O)O)c1; ξLeu(ψCOCO) = CC(C)CC(N[*:1])C(=O)C(=O)[*:2]; Gly(1-Me-cHex) = CC1([C@H](N)C(=O)O)CCCCC1; Pro(4,4-Me2) = CC1(C)CN[C@H](C(=O)O)C1; X19 = CCC[C@@H](N[*:1])C(=O)C(=O)[*:2]; X25 = O=C(O)c1c(F)c(F)c(F)c(F)c1C(=O)*; X12 = CCC[C@H](N[*:1])C(=O)C(=O)[*:2]; ξPhg(3-OMe) = COc1cccc(C(N)C(=O)O)c1; X4 = CCCCC(N[*:1])C(=O)C(=O)[*:2]; Hyp = O=C(O)[C@@H]1C[C@@H](O)CN1; X2 = CCCC(N[*:1])C(=O)C(=O)[*:2]; Chg = N[C@H](C(=O)O)C1CCCCC1; Phg = N[C@H](C(=O)O)c1ccccc1; Tle = CC(C)(C)[C@H](N)C(=O)O; X20 = CC(C)[C@@H](C)OC(=O)*; X18 = CC(C)C(C)OC(=O)*; X21 = CC(C)S(=O)(=O)*; X27 = O=C(OC1CCCCC1)*; Sar = CNCC(=O)O; tBu = CC(C)(C)*

What follows are compounds tested against HCV NS3/NS4A protease (strain 1a) (Hepatitis C virus genotype 1a, UniProt P27958) (assay: biochemical). Settings: Compounds prepared by Solid Phase Synthesis, Table 3; read-out: Ki* CLASS.
Work on `CCCC(NC(=O)[C@@H]1C[C@@H](OC(C)(C)C)CN1C(=O)[C@@H](NC(=O)c1c(F)c(F)c(F)c(F)c1C(=O)O)C1CCCCC1)C(=O)C(=O)NCC(=O)NC(C(N)=O)c1cccc(OC)c1` (stereo partly drawn) (X25-[Chg][Hyp](tBu)[X2]G[ξPhg(3-OMe)]-NH2) yielded a Ki of 101 to 1000 nM.
Compound `CCCC(NC(=O)[C@@H]1C[C@@H](OC(C)(C)C)CN1C(=O)[C@@H](NC(=O)c1c(F)c(F)c(F)c(F)c1C(=O)O)C1CCCCC1)C(=O)C(=O)N(C)CC(=O)N[C@H](C(N)=O)c1ccccc1` (stereo partly drawn) (X25-[Chg][Hyp](tBu)[X2][Sar][Phg]-NH2) has a Ki greater than 1000 nM.
In the case of `CCC(NC(=O)[C@@H]1C[C@@H](OC(C)(C)C)CN1C(=O)[C@@H](NC(=O)c1c(F)c(F)c(F)c(F)c1C(=O)O)C1CCCCC1)C(=O)C(=O)NCC(=O)N[C@H](C(N)=O)c1ccccc1` (stereo partly drawn) (X25-[Chg][Hyp](tBu)[ξ(3-Amino-2-oxopentanoyl)]G[Phg]-NH2), the Ki is reported as 1 to 100 nM.
`CC(C)CC(NC(=O)[C@@H]1C[C@@H](OC(C)(C)C)CN1C(=O)[C@@H](NC(=O)c1c(F)c(F)c(F)c(F)c1C(=O)O)C1CCCCC1)C(=O)C(=O)NCC(=O)N[C@H](C(N)=O)c1ccccc1` (stereo partly drawn) (X25-[Chg][Hyp](tBu)[ξLeu(ψCOCO)]G[Phg]-NH2) gave a Ki greater than 1000 nM.
In the case of `CCCC(NC(=O)[C@@H]1C[C@@H](O)CN1C(=O)[C@@H](NC(=O)c1c(F)c(F)c(F)c(F)c1C(=O)O)C1CCCCC1)C(=O)C(=O)NCC(=O)NC(C(N)=O)c1cc(OC)cc(OC)c1` (stereo partly drawn) (X25-[Chg][Hyp][X2]G[ξPhg(3,5-(OMe)2)]-NH2), the Ki is reported as 101 to 1000 nM.
`CCCC(NC(=O)[C@@H]1C[C@@H](OC(C)(C)C)CN1C(=O)[C@@H](NC(=O)c1c(F)c(F)c(F)c(F)c1C(=O)O)C(C)(C)C)C(=O)C(=O)NCC(=O)N[C@H](C(N)=O)c1ccccc1` (stereo partly drawn) (X25-[Tle][Hyp](tBu)[X2]G[Phg]-NH2) showed a Ki of 101 to 1000 nM.

Same assay, conditions: Table 4; HCV NS3/NS4A protease, spectrophotometric assay, 30° C., pH 6.5; read-out: Ki* Range
`CCC[C@@H](NC(=O)[C@@H]1[C@@H]2[C@H](CN1C(=O)[C@@H](NC(=O)O[C@H](C)C(C)C)C1(C)CCCCC1)C2(C)C)C(=O)C(=O)NCC(=O)N[C@H](C(=O)N(C)C)c1ccccc1` (X20-[Gly(1-Me-cHex)][Pro(3R,4S-CMe2)][X19]G[Phg]-NMe2) was tested, and the Ki was 1 to 100 nM.
With `CCC[C@H](NC(=O)[C@@H]1[C@H]2C[C@H]2CN1C(=O)[C@@H](NC(=O)O[C@H](C)C(C)C)C1(C)CCCCC1)C(=O)C(=O)NCC(=O)N[C@H](C(=O)N(C)C)c1ccccc1` (X20-[Gly(1-Me-cHex)][Pro(3S,4R-methano)][X12]G[Phg]-NMe2) the Ki was 1 to 100 nM.
In the case of `CCC[C@H](NC(=O)[C@@H]1[C@H]2C[C@H]2CN1C(=O)[C@@H](NC(=O)O[C@H](C)C(C)C)C(C)(C)C)C(=O)C(=O)NCC(=O)N[C@H](C(=O)N(C)C)c1ccccc1` (X20-[Tle][Pro(3S,4R-methano)][X12]G[Phg]-NMe2), the Ki is reported as 1 to 100 nM.
`CCCC(NC(=O)[C@@H]1CC(C)(C)CN1C(=O)[C@@H](NC(=O)O[C@H](C)C(C)C)C(C)(C)C)C(=O)C(=O)NCC(=O)N[C@H](C(=O)N(C)C)c1ccccc1` (stereo partly drawn) (X20-[Tle][Pro(4,4-Me2)][X2]G[Phg]-NMe2) gave a Ki of 1 to 100 nM.

Same assay, conditions: Table 5; HCV NS3/NS4A protease, spectrophotometric assay, 30° C., pH 6.5; read-out: Ki* Range
Compound `CCCC(NC(=O)[C@@H]1[C@@H]2[C@H](CN1C(=O)[C@@H](NC(=O)OC(C)C(C)C)C(C)(C)C)C2(C)C)C(=O)C(=O)NCC(=O)N[C@H](C(=O)N(C)C)c1ccccc1` (stereo partly drawn) (X18-[Tle][Pro(3R,4S-CMe2)][X2]G[Phg]-NMe2) has a Ki of 1 to 100 nM.
For `CCC[C@H](NC(=O)[C@@H]1[C@@H]2[C@H](CN1C(=O)[C@@H](NC(=O)OC(C)C(C)C)C(C)(C)C)C2(C)C)C(=O)C(=O)NCC(=O)N[C@H](C(=O)N(C)C)c1ccccc1` (stereo partly drawn) (X18-[Tle][Pro(3R,4S-CMe2)][X12]G[Phg]-NMe2), the Ki was 1 to 100 nM.
In the case of `CCC[C@@H](NC(=O)[C@@H]1[C@@H]2[C@H](CN1C(=O)[C@@H](NC(=O)OC(C)C(C)C)C(C)(C)C)C2(C)C)C(=O)C(=O)NCC(=O)N[C@H](C(=O)N(C)C)c1ccccc1` (stereo partly drawn) (X18-[Tle][Pro(3R,4S-CMe2)][X19]G[Phg]-NMe2), the Ki is reported as 1 to 100 nM.
`CCCCC(NC(=O)[C@@H]1[C@H]2[C@@H](CN1C(=O)[C@@H](NC(=O)OC(C)C(C)C)C(C)(C)C)C2(C)C)C(=O)C(=O)NCC(=O)N[C@H](C(=O)N(C)C)c1ccccc1` (stereo partly drawn) (X18-[Tle][Pro(3S,4R-CMe2)][X4]G[Phg]-NMe2) was tested, and the Ki was 1 to 100 nM.
`CCCC(NC(=O)[C@@H]1[C@@H]2[C@H](CN1C(=O)[C@@H](NS(=O)(=O)C(C)C)C(C)(C)C)C2(C)C)C(=O)C(=O)NCC(=O)N[C@H](C(=O)N(C)C)c1ccccc1` (stereo partly drawn) (X21-[Tle][Pro(3R,4S-CMe2)][X2]G[Phg]-NMe2) was tested, and the Ki was 1 to 100 nM.
Work on `CCC[C@H](NC(=O)[C@@H]1[C@@H]2[C@H](CN1C(=O)[C@@H](NS(=O)(=O)C(C)C)C(C)(C)C)C2(C)C)C(=O)C(=O)NCC(=O)N[C@H](C(=O)N(C)C)c1ccccc1` (X21-[Tle][Pro(3R,4S-CMe2)][X12]G[Phg]-NMe2) yielded a Ki of 1 to 100 nM.
In the case of `CCC[C@@H](NC(=O)[C@@H]1[C@@H]2[C@H](CN1C(=O)[C@@H](NS(=O)(=O)C(C)C)C(C)(C)C)C2(C)C)C(=O)C(=O)NCC(=O)N[C@H](C(=O)N(C)C)c1ccccc1` (X21-[Tle][Pro(3R,4S-CMe2)][X19]G[Phg]-NMe2), the Ki is reported as 1 to 100 nM.
`CCCC(NC(=O)[C@@H]1[C@H]2[C@@H](CN1C(=O)[C@@H](NC(=O)OC1CCCCC1)C(C)(C)C)C2(C)C)C(=O)C(=O)NCC(=O)N[C@H](C(=O)N(C)C)c1ccccc1` (stereo partly drawn) (X27-[Tle][Pro(3S,4R-CMe2)][X2]G[Phg]-NMe2) showed a Ki of 1 to 100 nM.
